The list shows a part of the results.
Columns and labels:
HSkMC = human skeletal muscle cells; assay: cytotoxicity call (relative viability < 0.9); details: 10 µM
HepG2 = assay: cytotoxicity call (relative viability < 0.9); details: 10 µM
S. aureus RN4220 = assay: growth inhibition call (relative growth <= 0.2); details: 50 µM

SMILES | cytotoxicity call (HSkMC) | cytotoxicity call (HepG2) | growth inhibition call (S. aureus RN4220)
C[C@H]1CN([C@@H](C)CO)C(=O)CCCn2cc(nn2)CO[C@H]1CN(C)S(=O)(=O)c1ccc2ccccc2c1 | inactive | inactive | inactive
COc1ccc(NC(=O)N(C)C[C@H]2Oc3ncc(Br)cc3C(=O)N([C@H](C)CO)C[C@@H]2C)cc1 | inactive | inactive | inactive
NC(=O)C[C@H](N)C(=O)O | inactive | inactive | inactive
Cc1noc(C)c1S(=O)(=O)Nc1ccc2c(c1)CC(=O)N([C@@H](C)CO)C[C@@H](C)[C@@H](CN(C)C(=O)Nc1ccc3c(c1)OCO3)O2 | inactive | inactive | inactive
COc1ccc(S(=O)(=O)N(C)C[C@@H]2Oc3c(NS(=O)(=O)c4cccs4)cccc3C(=O)N([C@H](C)CO)C[C@@H]2C)cc1 | inactive | inactive | inactive
C[C@H](CO)N1C[C@H](C)[C@H](CN(C)S(=O)(=O)c2ccccc2)Oc2ccc(NC(=O)C3CC3)cc2C1=O | inactive | inactive | inactive
C[C@H](CO)N1C[C@H](C)[C@H](CN(C)Cc2ccc(C(=O)Nc3ccccc3N)cc2)Oc2ccc(NC(=O)CCN3CCOCC3)cc2CC1=O | inactive | inactive | inactive
C=CC[C@H](CC(=O)N(CCO)Cc1ccccc1)C(=O)NC[C@@H](OC(=O)[C@@H](CC=C)Cc1ccc(F)cc1)c1ccccc1 | inactive | inactive | inactive
COc1ccc(NC(=O)N(C)C[C@@H]2Oc3ccc(NC(=O)C4CC4)cc3CC(=O)N([C@H](C)CO)C[C@H]2C)cc1 | inactive | inactive | inactive
C[C@@H]1CCCCO[C@@H](CN(C)C(=O)CCCN(C)C)[C@H](C)CN([C@H](C)CO)C(=O)c2cc(N(C)C)ccc2O1 | inactive | inactive | inactive
Cc1noc(C)c1NC(=O)N(C)C[C@H]1Oc2ccc(NC(=O)Nc3ccc(C(F)(F)F)cc3)cc2CC(=O)N([C@H](C)CO)C[C@H]1C | inactive | inactive | inactive
Cc1ccc(S(=O)(=O)N[C@H]2CC[C@H](CCNC(=O)CN3CCOCC3)O[C@@H]2CO)cc1 | inactive | inactive | inactive
COc1ccc(S(=O)(=O)N(C)C[C@@H]2OCCCC[C@@H](C)Oc3ccc(NC(=O)C4CCCCC4)cc3C(=O)N([C@@H](C)CO)C[C@@H]2C)cc1 | inactive | inactive | inactive
Cc1cccc(S(=O)(=O)N2C[C@H](O)COC[C@H]3O[C@H](CC(=O)NCCCN4CCOCC4)CC[C@@H]32)c1 | inactive | inactive | inactive
C[C@H](CO)N1C[C@H](C)[C@@H](CN(C)S(C)(=O)=O)Oc2ccc(NS(=O)(=O)c3ccc(F)cc3)cc2CC1=O | inactive | inactive | inactive
Cc1ccc(S(=O)(=O)Nc2ccc3c(c2)C(=O)N([C@H](C)CO)C[C@H](C)[C@@H](CN(C)S(=O)(=O)c2ccc(Cl)cc2)OCCCC[C@@H](C)O3)cc1 | inactive | active | inactive
CC1(C)CC[C@]2(C(=O)O[C@@H]3O[C@H](CO)[C@@H](O[C@H]4OC[C@](O)(CO)[C@H]4O)[C@H](O)[C@H]3O)CC[C@]3(C)C(=CC[C@H]4[C@@]5(C)C[C@@H](O)[C@H](O)[C@@](C)(CO)[C@@H]5[C@H](O)C[C@]43C)[C@@H]2C1 | inactive | inactive | inactive
CN(C)CCCNC(=O)C[C@H]1CC[C@H](NS(=O)(=O)c2ccccc2)[C@H](CO)O1 | inactive | inactive | inactive
COc1cccc(NC(=O)N(C)C[C@@H]2OCc3ccccc3-c3c(n(C)c4ccccc34)C(=O)N([C@H](C)CO)C[C@H]2C)c1 | inactive | inactive | inactive
CCCNC(=O)N[C@H]1CC[C@H](CC(=O)N2CCN(C)CC2)O[C@@H]1CO | inactive | inactive | inactive
COc1ccc(NC(=O)Nc2ccc3c(c2)C(=O)N([C@@H](C)CO)C[C@H](C)[C@@H](CN(C)S(=O)(=O)c2ccccc2)OCCCC[C@@H](C)O3)cc1 | inactive | inactive | inactive
CC(C)CC#Cc1ccc2c(c1)O[C@H](CN(C)S(=O)(=O)c1ccc(F)cc1)[C@H](C)CN([C@H](C)CO)S2(=O)=O | inactive | inactive | inactive
O=C(O)CCc1n[nH]c(=O)[nH]c1=O | inactive | inactive | inactive
COc1ccc(NC(=O)N(C)C[C@@H]2Oc3c(NC(=O)c4cc(C)nn4C)cccc3C(=O)N([C@@H](C)CO)C[C@@H]2C)cc1 | inactive | inactive | inactive

Source: the antibiotic and cytotoxicity screens of Wong et al. (2023)
